About 1,800 (2.5%) of roughly 73,000 compounds were called active. This list was built around the results that the source calls inconclusive (neither active nor inactive); the mix of calls is not that of the screen. Calls follow the shape of the dose curve; as a rule, active = well fitted activation curve with a large enough effect; inconclusive = small, poorly fitted or top-dose-only effect; inactive = no such curve, though single readings can be large or run the other way. Potencies of inconclusive entries are left out as doubtful fits.
Assay: qHTS Assay for Agonists of the Thyroid Stimulating Hormone Receptor: Activators of Intracellular cAMP Concentrations in Parental HEK 293; also: nearly all actives have a fitted effect of over 55% in size; as to activation: % of control where 0% means no effect
Conditions: parental HEK293 CNG cAMP sensor, membrane potential fluorescence; activation: at 57.1 µM (top of the series) unless noted
Outline: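 Parental HEK 293 cells stably expressing a cAMP-gated CNG channel were loaded with membrane potential dye containing 100 uM RO 20-1724 for 60 min. Compound added for 30 min; depolarization read as fluorescence intensity at 590 nm.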
Potency is read from the fitted curve at half-maximal effect; tags tell the direction and shape of the fitted curve.

Structure (SMILES)	activation	Potency
COC(=O)C1=C(C)N(Cc2ccccc2)[C@]23O[C@](C(=O)OC)(C(=O)N2C1c1ccccc1)C1CCOC(=O)C13 (stereo not given in full)	inactive: 0.5% [at 11.4 µM]	–
CCn1c(SCC(=O)Nc2cc(C)on2)nc2c(c1=O)SC(C)C2 (stereo not given)	inconclusive: 36.6% [activator]	–
Cc1ccnc(N2CCC(C(=O)Nc3nnc(C)s3)CC2)n1	inactive: 12.5%	–
COc1ccccc1-c1nc(C(F)(F)F)c(OC)o1	–	inconclusive [activator, single point]
Cc1noc(C)c1COC(=O)c1cccc(S(=O)(=O)N2CCCCCC2)c1	–	active: 20 µM
C=CCn1c(SCC(=O)Nc2ccc3c(c2)CCC3)nnc1-c1cccs1	–	inconclusive [activator, single point]
COC(=O)c1cccc(NC(=O)Cn2nnc3ccccc32)c1	–	inconclusive [activator, single point]
CC(C)=NOCc1ccc(-c2cc(-c3ccccc3)no2)cc1	inactive: 10.2% [at 11.4 µM]	–
CCOC(=O)C1CCCN(C(=O)c2ccc3c(=O)n(CCOC)c(=S)[nH]c3c2)C1 (stereo not given)	–	inconclusive [activator, single point]
Cc1ccc(C)c(OCCCCCn2ccnc2)c1	–	inconclusive [activator, single point]
COc1ccc(-n2c(=O)cnc3cnc(Oc4ccccc4)nc32)cc1	–	inconclusive [activator, partial curve]
CCC1Oc2ccc(C)cc2N(CC(=O)NCc2cc(OC)ccc2OC)C1=O (stereo not given)	–	inconclusive [activator, partial curve]
c1ccc(-c2nc(N3CCCCCC3)c3ccccc3n2)nc1	–	inconclusive [activator, partial curve]
CC(=O)[C@@H]1[C@@H]2C(=O)N(c3ccc(F)c(Cl)c3)C(=O)[C@@H]2C2c3ccccc3C=CN21 (stereo not given in full)	inactive: 3.04%	–
OC(c1ccc2c(c1)OCO2)c1nccc2ccccc12 (stereo not given)	inactive: 15.8%	–
C(=N/Nc1nnc2c(n1)[nH]c1ccccc12)/c1cccnc1	inactive: -0.101% [at 11.4 µM]	–
Cc1cc(C)nc(N2CCCC(C(=O)NC3CCCC3)C2)n1 (stereo not given)	–	inconclusive [activator, single point]
O=C(CC1Sc2ncnn2C1=O)Nc1ccc(Br)cc1 (stereo not given)	–	inconclusive [activator, partial curve]
CCCCCCC1C(C#N)=C(N)OC2=C1C(=O)CC(C)(C)C2 (stereo not given)	inactive: 10.8%	–
CCSC(C)CC1C/C(=N/O)c2c(C)noc2C1 (stereo not given)	inactive: 24.2%	–

Source: PubChem BioAssay AID938 (National Center for Advancing Translational Sciences (NCATS), 2007)
